# Measured values as given in the supplement of paper PMC12217912.
# The other results are listed elsewhere or left out. Sequences were assembled here from the parent chain. Values near 0.05 are background.
# B1: TEV protease; numbered along this chain (parent)
# chain: MGESLFKGPRDYNPISSSICHLTNESDGHTTSLYGIGFGPFIITNKHLFRRNNGTLVVQSLHGVFKVKDTTTLQQHLVDGRDMIIIRMPKDFPPFPQKLKFREPQREERICLVTTNFQTKSMSSMVSDTSCTFPSGDGIFWKHWIQTKDGQCGSPLVSTRDGFIVGIHSASNFTNTNNYFTSVPKNFMELLTNQEAQQWVSGWRLNADSVLWGGHKVFMVKPEEPFQPVKEATQL
# Variants of: B1
# Assay: raw area under fraction-flipped curve 0-4 h after induction (AUC4h, not background-subtracted), DNA-recorder readout of cleavage of the substrate (dimensionless); higher = more cleavage of the substrate by the protease variant
# Settings: temperature: 34 °C; time window: 0-4 h after rhamnose induction
# Protocol: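 In vivo DNA recorder in E. coli TOP10(DE3) ΔrhaA at 34 °C. Each TEVp single-site mutant (parent TEVp 0) is paired with a single-site variant of the 7-mer TEVs (canonical ENLYFQ|S). The substrate sits between flexible linkers in a Bxb1-sfGFP-TEVs-SsrA fusion, so cleavage stabilises Bxb1 and speeds flipping of a recombination array, read by NGS. The value is the raw area under the fraction-flipped curve over 0-4 h after rhamnose induction (AUC4h), with ≥20 reads per time point. It is not background-subtracted; inactive controls average about 0.047.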
# 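Also: Bxb1 expression induced with 0.2% (w/v) L-rhamnose at OD600 near 0.5, cultures sampled hourly, flipped fraction per protease–substrate barcode pair counted by paired-end Illumina sequencing.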
Variant,area with substrate EALYFQS,area with substrate ECLYFQS,area with substrate EDLYFQS,area with substrate EFLYFQS,area with substrate EHLYFQS,area with substrate EILYFQS,area with substrate ELLYFQS,area with substrate EPLYFQS,area with substrate EQLYFQS,area with substrate ERLYFQS,area with substrate ESLYFQS,area with substrate EELYFQS,area with substrate EKLYFQS,area with substrate EMLYFQS,area with substrate ETLYFQS,area with substrate EWLYFQS,area with substrate EGLYFQS,area with substrate EVLYFQS,area with substrate EYLYFQS
MGESLFKGPRDYNPISSSICHLTNESDGHTTSLYGIGFGPFIITNKHLFRRNNGTLVVQSLHGVFKVKDTTTLQQHLVDGRDMIIIRMPKDFPPFPQKLKFREPQREERICLVTTNFQTKSMSSMVSDTSCTFFSGDGIFWKHWIQTKDGQCGSPLVSTRDGFIVGIHSASNFTNTNNYFTSVPKNFMELLTNQEAQQWVSGWRLNADSVLWGGHKVFMVKPEEPFQPVKEATQL [P134F],0.053,0.0517,0.0799,0.058,0.0769,0.0501,0.0701,0.0719,0.0727,0.0437,0.0689,–,–,–,–,–,–,–,–
MGESLFKGPRDYNPISSSICHLTNESDGHTTSLYGIGFGPFIITNKHLFRRNNGTLVVQSLHGVFKVKDTTTLQQHLVDGRDMIIIRMPKDFPPFPQKLKFREPQREERICLVTTNFQTKSMSSMVSDTSCTFMSGDGIFWKHWIQTKDGQCGSPLVSTRDGFIVGIHSASNFTNTNNYFTSVPKNFMELLTNQEAQQWVSGWRLNADSVLWGGHKVFMVKPEEPFQPVKEATQL [P134M],0.118,–,–,–,–,0.073,–,0.118,–,–,–,0.0763,0.0961,0.118,0.0935,–,–,–,–
MGESLFKGPRDYNPISSSICHLTNESDGHTTSLYGIGFGPFIITNKHLFRRNNGTLVVQSLHGVFKVKDTTTLQQHLVDGRDMIIIRMPKDFPPFPQKLKFREPQREERICLVTTNFQTKSMSSMVSDTSGTFPSGDGIFWKHWIQTKDGQCGSPLVSTRDGFIVGIHSASNFTNTNNYFTSVPKNFMELLTNQEAQQWVSGWRLNADSVLWGGHKVFMVKPEEPFQPVKEATQL [C131G],0.0989,0.0897,–,–,–,–,0.0718,–,0.124,–,0.11,–,–,–,–,0.076,–,–,–
MGESLFKGPRDYNPISSSICHLTNESDGHTTSLYGIGFGPFIITNKHLFRRNNGTLVVQSLHGVFKVKDTTTLQQHLVDGRDMIIIRMPKDFPPFPQKLKFREPQREERICLVTTNFETKSMSSMVSDTSCTFPSGDGIFWKHWIQTKDGQCGSPLVSTRDGFIVGIHSASNFTNTNNYFTSVPKNFMELLTNQEAQQWVSGWRLNADSVLWGGHKVFMVKPEEPFQPVKEATQL [Q118E],0.108,0.0877,0.0974,–,–,0.0639,0.113,–,–,–,0.0996,–,0.0985,0.106,–,–,0.0675,0.108,0.0704
MGESLFKGPRDYNPISSSICHLTNESDGHTTSLYGIGFGPFIITNKHLFRRNNGTLVVQSLHGVFKVKDTTTLQQHLVDGRDMIIIRMPKDFPPFPQKLKFREPQREERICLVTTNFQTKSMSSMVSDTSCTFPTGDGIFWKHWIQTKDGQCGSPLVSTRDGFIVGIHSASNFTNTNNYFTSVPKNFMELLTNQEAQQWVSGWRLNADSVLWGGHKVFMVKPEEPFQPVKEATQL [S135T],0.155,–,0.116,0.0906,0.112,0.0713,0.0596,0.1,0.117,0.0631,0.0743,–,0.0894,0.102,0.049,–,0.0585,0.0901,0.0907
MGESLFKGPRDYNPISSSICHLTNESDGHTTSLYGIGFGPFIITNKHLFRRNNGTLVVQSLHGVFKVKDTTTLQQHLVDGRDMIIIRMPKDFPPFPQKLKFREPQREERICLVTTNFQTKSMSSMVSDTSCTFPMGDGIFWKHWIQTKDGQCGSPLVSTRDGFIVGIHSASNFTNTNNYFTSVPKNFMELLTNQEAQQWVSGWRLNADSVLWGGHKVFMVKPEEPFQPVKEATQL [S135M],0.0582,0.0626,–,–,0.0714,0.0611,–,0.101,–,0.0656,0.0629,–,–,0.0924,–,–,0.0557,0.0516,–
MGESLFKGPRDYNPISSSICHLTNESDGHTTSLYGIGFGPFIITNKHLFRRNNGTLVVQSLHGVFKVKDTTTLQQHLVDGRDMIIIRMPKDFPPFPQKLKFREPQREERICLVTTNFQTKSMSSMVSDTSCTFPEGDGIFWKHWIQTKDGQCGSPLVSTRDGFIVGIHSASNFTNTNNYFTSVPKNFMELLTNQEAQQWVSGWRLNADSVLWGGHKVFMVKPEEPFQPVKEATQL [S135E],0.11,0.085,0.106,–,–,–,–,0.092,0.0821,0.0841,0.0862,0.0597,0.0833,0.0704,–,–,0.0718,0.0793,–
MGESLFKGPRDYNPISSSICHLTNESDGHTTSLYGIGFGPFIITNKHLFRRNNGTLVVQSLHGVFKVKDTTTLQQHLVDGRDMIIIRMPKDFPPFPQKLKFREPQREERICLVTTIFQTKSMSSMVSDTSCTFPSGDGIFWKHWIQTKDGQCGSPLVSTRDGFIVGIHSASNFTNTNNYFTSVPKNFMELLTNQEAQQWVSGWRLNADSVLWGGHKVFMVKPEEPFQPVKEATQL [N116I],0.0975,–,0.089,–,0.0937,–,0.0859,–,–,–,0.0885,–,–,–,–,–,–,0.0842,–
MGESLFKGPRDYNPISSSICHLTNESDGHTTSLYGIGFGPFIITNKHLFRRNNGTLVVQSLHGVFKVKDTTTLQQHLVDGRDMIIIRMPKDFPPFPQKLKFREPQREERICLVTTNFQTKSMSSMVSDTSCTFPSIDGIFWKHWIQTKDGQCGSPLVSTRDGFIVGIHSASNFTNTNNYFTSVPKNFMELLTNQEAQQWVSGWRLNADSVLWGGHKVFMVKPEEPFQPVKEATQL [G136I],0.133,–,–,0.0837,–,0.105,0.0879,0.137,–,–,0.109,–,–,–,–,–,0.135,0.209,–
MGESLFKGPRDYNPISSSICHLTNESDGHTTSLYGIGFGPFIITNKHLFRRNNGTLVVQSLHGVFKVKDTTTLQQHLVDGRDMIIIRMPKDFPPFPQKLKFREPQREERICLVTTNFQTKSMSSMVSDRSCTFPSGDGIFWKHWIQTKDGQCGSPLVSTRDGFIVGIHSASNFTNTNNYFTSVPKNFMELLTNQEAQQWVSGWRLNADSVLWGGHKVFMVKPEEPFQPVKEATQL [T129R],0.102,–,–,–,0.0825,–,–,0.106,0.132,–,0.0986,0.114,–,0.0728,–,–,–,0.105,–
